Changes are numbered by the printed parent chain.

These results are taken from patent publication US20220073613A1, “ACTIVATABLE MASKED ANTI-CTLA4 BINDING PROTEINS” (Xilio Development, Inc., priority 2018, published 2022).

Series [1] deals with human conditioned media from human tumors (colon tumors, lung tumors). Kind of series: Ex vivo cleavage in conditioned media from human tumors, ELISA, SDS-PAGE and MS. To be noted: for percentage (%) of cleavage / molecules cleaved, ELISA / percentage (%) of cleavage based on MS data: colon2 4sept colon tumor sample. (In general: An ELISA detects its analyte on a solid surface through an enzyme-linked reagent.)

Series [2] is described as follows: In vivo cleavage of masked antibodies in plasma of healthy mice, Western blot. The arrangement: species or system C57BL/6J mice. To be noted: 200 μg i.p., days 2, 4, 7. How it is done: Healthy, non-tumor bearing, seven-eight week old female C57BL/6J mice were injected intraperitoneally on day 0 with 200 μg of masked forms of Antibody 2. On days two and four, blood was collected via RO sinus and processed with LiHep for plasma isolation. On day seven, blood was collected via cardiac puncture and processed with LiHep for plasma isolation. Plasma was aliquoted and stored at −80° C. until Western blot analysis. Standard samples where the masked antibody was treated in the presence or absence of protease in vitro were included as positive controls. For Western blot analysis, plasma samples were diluted in PBS, then in Laemmli Sample Buffer and βME. Samples were heated at 95° C. then loaded on a Criterion TGX Stain-free Precast gel. SDS-PAGE was performed at 200 V for forty-two minutes. Protein was transferred to nitrocellulose membrane and blocked in 1×TBS with 1% Casein Blocker for one hour at room temperature shaking. The membrane was probed with HRP-conjugated Rb mAb to human Kappa Light Chain [clone EPR5367-8], diluted 1:10,000 in Casein Blocker, overnight at 4° C. shaking. The membrane was washed three times with PBS-Tween and developed with SuperSignal ELISA Pico Chemiluminescent Substrate. Raw data was analyzed with ImageLab software. Activation percentage was calculated as follows: the intensity of the activated band/(intensity of the activated band+intensity of the masked non-activated band)*100%.
In vivo experiment was performed in two cohorts across two weeks, with Antibody 2-14 included in both cohorts. Antibodies that were tested include Antibody 2-14, Antibody 2-15, Antibody 2-16, Antibody 2-17, Antibody 2-18, Antibody 2-19, Antibody 2-20, and Antibody 2-21. Antibody 2-15 includes a cleavable peptide sequence that is non-cleavable, for use as a negative control.
On the technique in general: In western blotting, separated proteins are transferred to a membrane and probed.

Another series deals with T1, human CTLA4-Fc (Homo sapiens, UniProt P16410).
T1 construct: purchased R&D Systems 7268-CT
Kind of series: Low density antigen binding ELISA, with or without protease activation. Here is the method:
Masked antibodies were buffer exchanged into MMP cleavage buffer prior to incubation with the protease. For activation, protease (Anaspec, ProsecBio, and R&D Systems) was diluted to 100 ng/μL in MMP cleavage buffer (50 mM Tris pH 8.0, 150 mM NaCl, 10 mM CaCl2). APMA (10 mM in DMSO) was added to a final concentration of 1 mM. The enzyme was incubated at 37° C. for 1 hour. Activated protease was added to the masked antibodies at a ratio of 1:1000 antibody:protease (e.g., 1 ug MMP to 1 mg antibody) or an equal amount of buffer was added to negative control samples. Samples were incubated at 37° C. overnight.
Polystyrene 96-well microplates (Fisher #07-200-591) were coated with 1 μg/mL of human CTLA4-Fc (R&D #7268-CT) per well and stored overnight at 4° C. Plates were washed with 0.05% Tween in TBS (TBS-T), blocked with 1% BSA (Sigma Aldrich #B4287-25G), and washed with TBS-T. Serial dilutions of samples containing anti-CTLA4 antibodies were made in assay buffer (PBS+0.05% Tween+1% BSA), added to plate, and shaken orbitally at 100 RPM at room temperature for one hour. After washing with TBS-T, anti-human Kappa light chain [clone: SB81a]-HRP (Abcam #ab79115) diluted to 1:8000 in assay buffer was applied to the wells and shaken at room temperature for one hour. Plates were washed with TBS-T, HRP substrate (Super Signal Pico Chemiluminescent Substrate, Thermo #37069) was applied to plate, and luminescence was recorded using a spectrophotometer (BioTek). Data was analyzed with GraphPad Prism.
Humanized anti-CTLA4 antibodies were used in low density antigen binding ELISA described in Example 7. For assessing activation of masked activatable forms of the humanized anti-CTLA4 antibodies, recombinant proteases were used as outlined in Example 6.
Serial dilutions of the antibodies were made in assay buffer, added to 96-well microplates coated with human CTLA4-Fc, and shaken at room temperature for one hour. Plates were washed with TBS-T, blocked with BSA, and washed again with TBS-T. The antibodies were added to plate and shaken. After washing, anti-human Kappa light chain (conjugated to HRP) in assay buffer was applied to the wells and shaken at room temperature. Plates were washed again before HRP substrate was added. Luminescence was recorded using a spectrophotometer and data analyzed with GraphPad Prism.
FIG. 10A and FIG. 10B show binding studies with masked and unmasked versions of Antibody 2 in the absence (FIG. 10A) or presence (FIG. 10B) of protease. […] Higher concentrations of antibodies are necessary to show binding as evidenced by the shift to the right of the unmasked Antibody 2-6 and the IgG1 isotype (FIG. 10A). Masked antibodies are considered occluded by masking peptide. The occlusion of each masked antibody is shown in Table 7, below, and is calculated by dividing the EC50 for the masked antibody by the EC50 of the unmasked parental antibody, Antibody 2-6.
Unmasked parental Antibody 2-6 was included as a control and was not exposed to protease. Protease digestion was performed according to the protocol provided in Example 6.
A comparison of the in vitro sensitivity of the cleavable peptide sequences to select proteases is shown as radar plots in FIG. 11A-H. Activation of each antibody by each protease on the radar plot is depicted using a radar plot, where activation is depicted as ranging from 0 (no activation) to 1.0 (full activation). […] The occlusion of each masked antibody is shown in Table 12, below, and is calculated by dividing the EC50 for the masked antibody by the EC50 of the unmasked parental antibody, Antibody 2-6. Binding was conducted according to the protocol provided in Example 7 and Example 8 and proteolytic treatment of the antibodies was conducted to according to the protocol provided in Example 6 and Example 8. A solution of masked anti-CTLA4 antibody (1000 nM) was made in appropriate cleavage buffer. Two antibody samples were aliquoted into two 0.5 mL Eppendorf tubes. […]

[3] abbreviates: cultured in colon tumor conditioned media (colon2 4 sept).
Setting [4] is: colon tumor conditioned media, MS.

B1: Antibody 2-15: masked Antibody 2-6: mask CPGKGLPSC, non-cleavable peptide GSGGSG; SEQ ID NO: 423 and 421; negative control (protein)
light: ACPGKGLPSCGGGSSGGSGGSGGSGSGGEIVLTQSPDFQSVTPKEKVTITCSANSALSYMYWYQQKPDQSPKLWVHGTSNLASGVPSRFSGSGSGTDFTLTINSLEAEDAATYYCHHWSNTQWTFGGGTKVEIKRTVAAPSVFIFPPSDEQLKSGTASVVCLLNNFYPREAKVQWKVDNALQSGNSQESVTEQDSKDSTYSLSSTLTLSKADYEKHKVYACEVTHQGLSSPVTKSFNRGEC
heavy: QVQLVQSGAEVKKPGSSVKVSCKASGYTFTNYFMNWVRQAPGQGLEWMGRVDPEQGRADYAEKFKKRVTITADKSTSTAYMELSSLRSEDTAVYYCARRAMDNYGFAYWGQGTLVTVSS[human IgG1 constant region with changes left out here]
Turning to B1, in series [1], the “percentage (%) of cleavage / molecules cleaved, ELISA” value was 0% and the “percentage (%) of cleavage based on MS data” value (“percentage (%) … on MS data” below) amounted to 1.2%. Moreover, the “abundance of intact antibody, mass spectrometry” value (from here on “abundance of intact antibody”) in series [1] (cultured in RPMI as a control) was determined as 98.8%. Also, the “abundance of intact antibody” value in series [1] (setting [3]) came out at 98.8%. In addition, the “activation in vivo (cleavage in plasma)” value in series [2] was “not detected”. Further, the “binding upon addition of various exemplary proteases (radar plot)” value with human CTLA4-Fc (Adam17, MMP1, MMP2, MMP7, MMP9, MMP10, MMP14, NapsinA) is “unaffected in its binding”. Besides, in the series with human CTLA4-Fc (Table 12, Protease +), the Activation was 0.29 and the Occlusion was 44. Also, the Occlusion with human CTLA4-Fc (Table 12, Protease −) was 62.

B2: Antibody 2-10: masked Antibody 2-6: mask CPFPALELC, non-cleavable peptide GSGGSG; SEQ ID NO: 427 and 421; negative control (protein)
light: B1 light with G4F, K5P, G6A, P8E, S9L
heavy: QVQLVQSGAEVKKPGSSVKVSCKASGYTFTNYFMNWVRQAPGQGLEWMGRVDPEQGRADYAEKFKKRVTITADKSTSTAYMELSSLRSEDTAVYYCARRAMDNYGFAYWGQGTLVTVSS[human IgG1 constant region with changes left out here]
Regarding B2, in series [1], the “percentage (%) … on MS data” value is 5.7%. Besides, the “abundance of intact antibody” value in series [1] (cultured in RPMI as a control) was 97.5%; in series [1] (setting [3]), 94.3%. In addition, the Occlusion with human CTLA4-Fc (Table 7, absence of protease, EC50 masked antibody / EC50 Antibody 2-6) stood at 43; with human CTLA4-Fc (Table 13, Protease −), 43.

B3: Antibody 2-14: masked Antibody 2-6: mask CPGKGLPSC, cleavable peptide VPLSLY; SEQ ID NO: 358 and 421 (protein)
light: B1 light with G20V, S21P, G22L, G23S, S24L, G25Y
heavy: QVQLVQSGAEVKKPGSSVKVSCKASGYTFTNYFMNWVRQAPGQGLEWMGRVDPEQGRADYAEKFKKRVTITADKSTSTAYMELSSLRSEDTAVYYCARRAMDNYGFAYWGQGTLVTVSS[human IgG1 constant region with changes left out here]
Take B3: in series [1], the “percentage (%) of cleavage / molecules cleaved, ELISA” value turned out to be 100% and the “percentage (%) … on MS data” value is given as 95.2%. Moreover, the “percentage (%) of cleavage, ELISA” value in series [1] (colon2 8aug colon tumor sample) is listed as 100%. Also, in series [1] (colon 28aug colon tumor sample), the “percentage (%) of cleavage, ELISA” value is 75%. In series [1] (setting [4]), the “abundance of the L*SLY cleavage product” value is given as 69%, the “abundance of the L*YSGG cleavage product” value is given as 2.7%, the “abundance of the S*GG cleavage product” value stood at 6.3% and the “abundance of the S*LY cleavage product” value is 5.9%. The “abundance of the Y*SGG cleavage product” value in series [1] (setting [4]) is 11.3%. Further, the “abundance of intact antibody” value in series [1] (cultured in RPMI as a control) came out at 99.6%. Also, the “abundance of intact antibody” value in series [1] (setting [3]) was 4.8%. Further, the “percentage (%) of cleavage, ELISA” value in series [1] (lung tumor sample) is on record as 2.7%. Further, the “activation in vivo (cleavage in plasma)” value in series [2] is given as “activated in vivo”. Also, in the series with human CTLA4-Fc (Table 12, Protease +), the Activation came to 1.0 and the Occlusion is reported as 1.1. The molecule further yielded an Occlusion with human CTLA4-Fc (Table 12, Protease −) of 101.

B4: Antibody 2-16: masked Antibody 2-6: mask CPFPALELC, cleavable peptide DSGGFMLT; SEQ ID NO: 422 and 421 (protein)
light: ACPFPALELCSSGGSGPDSGGFMLTSGGEIVLTQSPDFQSVTPKEKVTITCSANSALSYMYWYQQKPDQSPKLWVHGTSNLASGVPSRFSGSGSGTDFTLTINSLEAEDAATYYCHHWSNTQWTFGGGTKVEIKRTVAAPSVFIFPPSDEQLKSGTASVVCLLNNFYPREAKVQWKVDNALQSGNSQESVTEQDSKDSTYSLSSTLTLSKADYEKHKVYACEVTHQGLSSPVTKSFNRGEC
heavy: QVQLVQSGAEVKKPGSSVKVSCKASGYTFTNYFMNWVRQAPGQGLEWMGRVDPEQGRADYAEKFKKRVTITADKSTSTAYMELSSLRSEDTAVYYCARRAMDNYGFAYWGQGTLVTVSS[human IgG1 constant region with changes left out here]
B4: the “percentage (%) of cleavage / molecules cleaved, ELISA” value in series [1] was determined as 100%. The “percentage (%) … on MS data” value in series [1] stood at 99.8%. The “percentage (%) of cleavage, ELISA” value is on record as 98% in series [1] (colon2 8aug colon tumor sample), 45% in series [1] (colon 28aug colon tumor sample) and 21% in series [1] (lung tumor sample). In addition, in series [1] (setting [4]), the “abundance of the T*SGG cleavage product” value is recorded as 96.8%. For the same molecule, the “abundance of intact antibody” value in series [1] (cultured in RPMI as a control) was 99.8%; in series [1] (setting [3]), 0.2%. The “activation in vivo (cleavage in plasma)” value in series [2] is “not detected”.
